Whole data set: some 110,000 compounds, median “z-score” near -0.1, cut for the highest 2% near 2. This is one part of the list. Activity calls are given as the source filed them.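 The calls were made as follows: active = z-score in the third read window above 3 or below -3; inactive = the rest.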

For the assay, the target named is Metabotropic glutamate receptor 8 (Rattus norvegicus) (UniProt P70579). The assay is described as follows: mGluR8 Gi/Go-coupled signaling modulation – cell-based, rat, thallium flux, HTS, primary screen (AID 488969). The note with it: HEK293 rat mGluR8, GIRK (G protein-gated inwardly rectifying potassium channel) thallium flux, FluoZin2; at 10 µM; stronger effect = higher value; submaximal glutamate (EC20) added with thallium.
UniProt P70579, sequence (P70579 whole entry, looked up): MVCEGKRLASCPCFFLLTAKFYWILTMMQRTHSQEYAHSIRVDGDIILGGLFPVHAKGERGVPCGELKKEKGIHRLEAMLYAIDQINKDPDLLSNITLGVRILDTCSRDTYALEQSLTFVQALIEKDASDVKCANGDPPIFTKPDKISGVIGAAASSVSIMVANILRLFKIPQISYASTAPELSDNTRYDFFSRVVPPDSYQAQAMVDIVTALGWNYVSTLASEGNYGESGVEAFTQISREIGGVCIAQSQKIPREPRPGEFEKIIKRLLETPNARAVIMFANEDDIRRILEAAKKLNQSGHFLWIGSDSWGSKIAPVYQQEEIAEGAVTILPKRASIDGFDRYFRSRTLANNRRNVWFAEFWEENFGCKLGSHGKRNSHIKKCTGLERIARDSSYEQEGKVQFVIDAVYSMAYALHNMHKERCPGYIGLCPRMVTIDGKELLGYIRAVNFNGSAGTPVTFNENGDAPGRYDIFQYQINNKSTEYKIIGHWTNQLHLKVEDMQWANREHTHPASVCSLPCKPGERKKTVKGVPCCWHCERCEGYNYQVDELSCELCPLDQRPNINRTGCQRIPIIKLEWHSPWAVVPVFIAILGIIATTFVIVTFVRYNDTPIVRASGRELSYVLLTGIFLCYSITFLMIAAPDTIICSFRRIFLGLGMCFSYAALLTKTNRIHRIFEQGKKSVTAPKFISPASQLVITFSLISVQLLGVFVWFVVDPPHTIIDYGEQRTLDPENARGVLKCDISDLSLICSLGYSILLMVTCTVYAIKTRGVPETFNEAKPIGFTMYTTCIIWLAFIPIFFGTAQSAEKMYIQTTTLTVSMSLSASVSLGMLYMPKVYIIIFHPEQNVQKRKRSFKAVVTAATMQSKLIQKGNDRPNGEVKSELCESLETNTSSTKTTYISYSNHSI
`Cc1cc(-c2n[nH]c(=S)n2/N=C/c2cccc([N+](=O)[O-])c2)n[nH]1` displayed a z-score of -0.221.

Compound `CCc1c(C)nc(SC(C(=O)O)c2ccccc2)c(C#N)c1C` (configuration not stated) yielded a z-score of -0.69.

In turn, `O=C(Cn1nc(CNc2ccc(Cl)cc2)[n+]2c1CCCCC2)c1ccc(Cl)cc1` registered a z-score of -0.172.

In turn, `O=[N+]([O-])/C=C/c1cn(Cc2ccc(Cl)cc2)c2ccccc12` showed a z-score of -0.16.

Regarding `COc1ccc(C2c3c(C)nn(-c4ccccc4)c3NC(=O)N2c2ccccc2)cc1` (configuration not stated), the z-score is -0.155.

In the case of `Cc1c(C(=S)Nc2ccccc2)cnn1-c1ccc([N+](=O)[O-])cc1`, the z-score was -0.283.

The compound `O=C(CCN1C(=O)C2C3C=CC(C3)C2C1=O)N1CCN(c2ccccn2)CC1` (configuration not stated) showed a z-score of 0.834.

The compound `COc1ccc(NS(=O)(=O)c2ccc(NC(C)=O)cc2)cc1OC` registered a z-score of -0.16.

`COC(=O)c1cc2sccc2n1Cc1nc(-c2ccc(Cl)cc2)oc1C` had a z-score of -0.154.

In turn, `CCOC(=O)c1c(-c2cccs2)csc1NC(=O)CN(CC)CC` displayed a z-score of -0.944.

With `Cc1ccc(SC/C(O)=C(\C#N)c2nc3ccccc3s2)cc1`, the z-score is -1.38.

The compound `O=S(=O)(Nc1nc2c(s1)CCCC2)c1ccc(F)cc1` registered a z-score of 0.267.

`O=C(CN1C(=O)NC2(CCCCCCC2)C1=O)NC1CCCc2ccccc21` (configuration not stated): the z-score is -0.288.

Compound `CC(=O)NC(=O)c1nnn(Cc2ccccc2)c1NC(C)=O` yielded a z-score of 0.442.

`N#C/C(C(=O)Oc1ccccc1)=C1/Nc2ccccc2-c2ccccc21` registered a z-score of 0.303.

Take `O=C(Nc1ccc(-c2nc3cc(Cl)ccc3o2)cc1)C1CCCO1` (configuration not stated): the z-score turned out to be 0.417.

For the compound `O=C(N/N=C/c1ccco1)c1ccccc1OCc1ccc(Br)cc1`, the z-score is -0.577.

Consider `Cc1cc(C)nc(N/N=C/C(Cl)=C/c2ccccc2)n1`, for which the z-score is 0.0852.

On to `O=C(CN1C(=O)/C(=C\c2cccc(F)c2)Oc2ccccc21)N1CCN(c2ccccn2)CC1`, for which the z-score is 0.117.

Consider `CCCCN(N=Nc1nonc1OC)c1nonc1OC`, for which the z-score is -0.795.

`COc1ccccc1OC1=NS(=O)(=O)c2ccccc21` came in with a z-score of -0.276.

The compound `CCc1ccccc1S(=O)(=O)Cc1ccc(C(=O)N2CCN(c3ccccn3)CC2)o1` came in with a z-score of -0.522.

With `CCN(CC#CCC(O)(c1ccccc1)C1CCCC1)C(C)C` (configuration not stated), the z-score came to 0.221.

Compound `ONC(=Nc1ccccc1)C(=Nc1ccccc1)NO` yielded a z-score of -0.64.

As for `O=C(CSc1nc2cc(Cl)ccc2s1)Nc1cccc(S(=O)(=O)N2CCOCC2)c1`, the z-score was 0.779.

Consider `O=C(O)/C=C/c1ccccc1Oc1ccccc1`, for which the z-score was -0.093.

The compound `CNC(=O)CC(=O)Nc1ccccc1C(=O)O` showed a z-score of -0.164.

Take `O=C(CSc1nnc(-c2ccc(F)cc2)o1)Nc1ccc(S(=O)(=O)N2CCCCCC2)cc1`: the z-score is -0.717.

`N#C/C(=C/c1ccc([N+](=O)[O-])cc1)C(=O)Nc1ccccc1O` came in with a z-score of -0.335.

Regarding `Cc1ccc(-c2ccc(CCC(=O)O)o2)cc1`, the z-score was -0.192.

As to `CCOc1ncccc1C(=O)N1CCN(Cc2ccc3c(c2)OCO3)CC1`, the z-score was -0.175.

`COc1ccccc1/C=C1\SC(=S)N(Nc2nc(C)cc(C)n2)C1=O` had a z-score of -0.21.

Consider `COc1nnc(-c2ccc(C)c(S(=O)(=O)NCCO)c2)c2ccccc12`, for which the z-score was -0.0626.

Take `COc1ccc(C(=O)Nn2cnc3ccccc3c2=O)c(OC)c1`: the z-score is -0.153.

In turn, `CC(=O)Nc1nc(S(=O)(=O)c2ccc(C)cc2)c(Cl)s1` displayed a z-score of 0.259.

`Cn1c(CN2CCN(C(=O)c3ccccc3)CC2)nc2cc([N+](=O)[O-])ccc21` had a z-score of 0.0497.

In the case of `CCC(=O)NC(=S)Nc1ccccc1C(=O)OC`, the z-score was -0.308.

Regarding `CC1(C)Cc2c(C#N)c(SCc3nc4ccccc4[nH]3)nc(N3CCOCC3)c2CO1`, the z-score was determined as 0.986.

For the compound `CC1(C)NC(=O)N(CC(O)COC2CCCCC2)C1=O` (configuration not stated), the z-score stood at 0.197.

In turn, `Cc1ccc(C(=O)N2CCCCCC2)cc1Br` came in with a z-score of -0.0137.

The compound `COc1ccc(-c2ccc(C#N)c(SCC(=O)Nc3sc4c(c3C#N)CCC4)n2)cc1OC` registered a z-score of -0.0669.

As for `COc1ccc(C(=O)N/N=C/c2ccc3cccc(OCc4ccccc4)c3n2)cc1`, the z-score is active: 3.81.

As to `S=C(c1ccc(N2CCCC2)cc1)N1CCCCC1`, the z-score is -0.446.

The compound `COc1ccc(Cc2nnc(NC(=O)CSc3ccc(C)cc3)s2)cc1OC` showed a z-score of 0.302.

Compound `CCOc1ccc(C(O)c2nccn2Cc2ccccc2)cc1` (configuration not stated) yielded a z-score of 0.113.

In turn, `COc1ccc(C2(C(=O)Nc3nncs3)CCCC2)cc1` displayed a z-score of -0.037.

`CCC(=O)N1CCc2cc(S(=O)(=O)CCC(=O)Nc3ccc(C)c(F)c3)ccc21` came in with a z-score of -0.123.

`COc1ccccc1NC(=S)NCc1ccccn1` registered a z-score of -0.0089.

`COc1ccc(N2CC(C(=O)NC3CC(C)(C)NC(C)(C)C3)CC2=O)cc1` (configuration not stated) had a z-score of -0.0168.

With `COc1cc2c(cc1OC)CN(C(=O)CSc1n[nH]c(N)n1)CC2`, the z-score is -0.299.

The compound `Cc1ccc(SCC(=O)Nc2ccc(N3CCN(c4ccccc4)CC3)c(F)c2)cc1` returned a z-score of -0.177.

On to `Cc1ccc(C(=O)NCc2ccc3c(c2)OCO3)cc1S(=O)(=O)N1CCCCC1`, for which the z-score is -0.34.

Compound `Cc1cccc(NC(=O)CN(C)S(=O)(=O)c2cccs2)c1` showed a z-score of -0.0381.

`O=C(O)CCC(=O)Nc1ccc(-c2nnc(-c3ccco3)o2)cc1` returned a z-score of -0.212.

On to `CN1CC(c2ccccc2)C2(COc3ccccc3C2=O)C12C(=O)Nc1ccccc12` (configuration not stated), for which the z-score was -0.257.

For the compound `O=C(NC(c1ccc(Cl)cc1)c1c(O)ccc2ccccc12)c1ccccc1` (configuration not stated), the z-score was -0.225.

As to `CCN(C(=O)COC(=O)CNC(=O)c1ccc(C)c(C)c1)C1CCS(=O)(=O)C1` (configuration not stated), the z-score was -0.0875.

As for `CCOC(=O)c1c(NC(=O)c2ccoc2C)sc(C)c1C`, the z-score is -0.133.

As for `C/C(N)=C(/C#N)C(=O)COC(=O)CCS(=O)(=O)c1ccccc1`, the z-score is -0.258.

`Cc1sc(NC(=O)c2ccccc2)c(C(c2ccccn2)N2CCN(CCO)CC2)c1C` (configuration not stated) displayed a z-score of -0.255.

The compound `Fc1ccc(-c2ccnc3nc(N4CCOCC4)nn23)cc1` returned a z-score of -0.236.

For `COC(=O)C(NC(=O)CCc1c(C)nc2ncnn2c1C)C(C)C` (configuration not stated), the z-score is 0.141.

`O=C1C2CC=CCC2C(=O)N1c1ccc(NCCc2cccc(F)c2)c([N+](=O)[O-])c1` (configuration not stated): the z-score is 0.109.

As to `O=C(CSc1nnc(CNC(=O)c2cccs2)o1)Nc1ccc2c(c1)OCO2`, the z-score was -0.175.

`Cc1ccc(C2=NN3C(C(=O)c4ccccc4)Oc4ccccc4C3C2)cc1` (configuration not stated) came in with a z-score of -0.0987.

`CCCCc1cc(=O)oc2cc(OCc3nn[nH]n3)c(Cl)cc12` registered a z-score of -0.0288.

The compound `CCCCN1C(=O)/C(=C/C=C2/CC(C)(C)CN2C)SC1=S` had a z-score of -1.1.

Compound `O=C(Nc1ccc(OC(F)F)c(Cl)c1)Nc1ccc2c(c1)OCO2` showed a z-score of -0.109.

In turn, `Cc1ccc(NC(=O)CN(c2ccccc2)S(=O)(=O)N(C)C)cc1` yielded a z-score of 0.149.

The compound `Cn1c(=O)c2c(SCC(=O)N3CCCc4ccccc43)nc(CC(C)(C)C)nc2n(C)c1=O` displayed a z-score of -0.0793.

`CCOC(=O)C(NC(=O)c1cccnc1)(Nc1cccc(C)n1)C(F)(F)F` (configuration not stated) registered a z-score of 0.399.

In turn, `Cc1c(C(=O)NCc2cccs2)oc2ccc(Br)cc12` yielded a z-score of 0.0404.

As for `CC(=O)c1sc(NC(=O)c2cc(-c3ccccc3)nn2-c2ccccc2)nc1C`, the z-score was active: 3.

For the compound `COc1ccc(OC)c(C2CC(=O)N3CN(c4ccc(C)c(Cl)c4)CSC3=C2C#N)c1` (configuration not stated), the z-score is -0.177.

As to `Cn1cnc([N+](=O)[O-])c1Oc1ccccc1`, the z-score was -0.416.

With `O=C(Nc1ccccc1)N1CCN(Cc2ccc3c(c2)OCO3)CC1`, the z-score is -0.318.

`O=c1c2ccccc2ncn1Cc1ccco1` displayed a z-score of -0.2.

Regarding `COC(=O)c1sc(N)c(C(=O)OC)c1COC(=O)CNS(=O)(=O)c1ccc(C)cc1`, the z-score is -0.387.

Compound `O=C(Nc1ccccc1Cl)c1ccn[nH]1` had a z-score of -0.0806.

Turning to `O=C(CCN1CCc2ccccc2C1)Nc1ccc2c(c1)OCO2`, the z-score was found to be 0.267.

As to `COc1ccc(C(=O)/C=C(\C)Nc2ccc3c(c2)OCO3)cc1`, the z-score was -0.807.

`CC(C)c1ccc(NC(=O)C2CC(=O)N(C(C)C)C2)cc1` (configuration not stated) had a z-score of 0.188.

`O=C(/C=C/Nc1ccc(OC(F)(F)F)cc1)C(F)(F)F` returned a z-score of -0.241.

Turning to `O=C(c1ccncc1)N(c1ccc2oc3c(c2c1)CCCC3)S(=O)(=O)c1cccc([N+](=O)[O-])c1`, the z-score was -0.1.

Regarding `COc1cc(/C=N/NC(=O)CN(Cc2ccccc2)S(=O)(=O)c2ccc3c(c2)OCCO3)ccc1O`, the z-score is -0.0717.

Turning to `Cc1cc(C)c(S(=O)(=O)c2ccccc2)c(OC(=O)c2cc(F)c(F)cc2Cl)n1`, the z-score is -2.04.

On to `N#C/C(C(=O)N1CCOCC1)=C1\Nc2ccccc2S1`, for which the z-score came out at 0.454.

`CCCCNC(=O)Cn1c(=O)oc2cc(S(=O)(=O)N3CC(C)CC(C)C3)ccc21` (configuration not stated) gave a z-score of -0.066.

`COc1ccc(CC(C(=O)Nc2cccc(F)c2)c2nn[nH]n2)c(OC)c1` (configuration not stated) yielded a z-score of -1.18.

The compound `Cc1cc(C)c(C#N)c(Oc2ccc(F)cc2)n1` gave a z-score of 0.000352.

`COc1ccc(OC)c(NC(=O)CCNS(=O)(=O)c2cccs2)c1` came in with a z-score of -0.0618.

Regarding `O=C(NC(C(=O)N/N=C/c1cccc2ccccc12)c1n[nH]c(=O)c2ccccc12)c1ccccc1` (configuration not stated), the z-score was -0.0873.

Turning to `CCS(=O)(=O)N1CCCC(C(=O)NCCc2ccccc2)C1` (configuration not stated), the z-score is -0.0661.

For `Cn1c(=O)c2c(nc(NCc3ccc4c(c3)OCO4)n2Cc2ccccc2)n(C)c1=O`, the z-score is -1.09.

The compound `COc1ccc(/C(O)=C2/C(=O)C(=O)N(CCN(C)C)C2c2ccc(OC)c(OC)c2)c(C)c1` (configuration not stated) had a z-score of 1.01.

As to `CSCCC1(C(=O)O)NC(c2ccccc2O)C2C(=O)N(C(C)C)C(=O)C21` (configuration not stated), the z-score was -0.427.

The compound `Cc1ccc(N(CCCCN2C(=O)c3ccccc3C2=O)C(=O)c2cccs2)cc1` came in with a z-score of 0.0647.

As to `Cc1sc(NC(=O)c2ccco2)c(C(c2cccnc2)N2CCCC2)c1C` (configuration not stated), the z-score is -0.443.

The compound `CCOc1c2ccc(C(=O)NCc3ccc(C)cc3)cc2nn1CC` showed a z-score of -0.258.

In turn, `CCOc1ccc(S(=O)(=O)N/N=C(\C)C2CCCCC2)cc1` had a z-score of 0.0618.

`CCOC(=O)c1nn(-c2ccc(Cl)cc2)c2nc(Nc3ccccc3)cc(=O)n12` showed a z-score of -0.375.

For `N#CCc1nc(CSc2nc3ccccc3s2)cs1`, the z-score is -0.135.

As for `Cc1[nH]n(-c2ccccc2)c(=O)c1C(c1ccc(O)c([N+](=O)[O-])c1)c1c(C)[nH]n(-c2ccccc2)c1=O`, the z-score was -0.776.

`CC(C)OCCCNC(=O)c1ccccc1Oc1ccccc1` had a z-score of -0.178.

For `CC(=O)Nc1ccc(S(=O)(=O)NC2(C(F)(F)F)N=C(c3ccccc3)NC2=O)cc1` (configuration not stated), the z-score is -0.0636.

Take `Cn1c(=O)c2c(nc(SCc3cccnc3)n2Cc2ccccc2)n(C)c1=O`: the z-score turned out to be 0.674.

Compound `CCCCN(CCCNC(=O)C1CCN(S(=O)(=O)CC)CC1)c1ccccc1` had a z-score of -0.175.

The values above are taken from PubChem BioAssay AID488969 (Vanderbilt High Throughput Screening Facility, 2010).
